Here are results for 110 molecules from PubChem BioAssay AID488969 (Vanderbilt High Throughput Screening Facility, 2010).

In all, about 110,000 compounds were measured (“z-score”: median about -0.1, highest 2% from about 2 on). The list shows a part of the results. Active and inactive are the calls of the source.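 How the source made its calls: active means z-score in the third read window above 3 or below -3; inactive means the rest.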

The test concerns the target Metabotropic glutamate receptor 8 (Rattus norvegicus) (UniProt P70579). Put plainly: rat mGluR8 modulators via GIRK flux, primary screen, cell-based, thallium flux, HTS (AID 488969). As to conditions: HEK293 rat mGluR8, GIRK (G protein-gated inwardly rectifying potassium channel) thallium flux, FluoZin2; at 10 µM; stronger effect = higher value.
UniProt P70579, sequence (P70579 whole entry, looked up): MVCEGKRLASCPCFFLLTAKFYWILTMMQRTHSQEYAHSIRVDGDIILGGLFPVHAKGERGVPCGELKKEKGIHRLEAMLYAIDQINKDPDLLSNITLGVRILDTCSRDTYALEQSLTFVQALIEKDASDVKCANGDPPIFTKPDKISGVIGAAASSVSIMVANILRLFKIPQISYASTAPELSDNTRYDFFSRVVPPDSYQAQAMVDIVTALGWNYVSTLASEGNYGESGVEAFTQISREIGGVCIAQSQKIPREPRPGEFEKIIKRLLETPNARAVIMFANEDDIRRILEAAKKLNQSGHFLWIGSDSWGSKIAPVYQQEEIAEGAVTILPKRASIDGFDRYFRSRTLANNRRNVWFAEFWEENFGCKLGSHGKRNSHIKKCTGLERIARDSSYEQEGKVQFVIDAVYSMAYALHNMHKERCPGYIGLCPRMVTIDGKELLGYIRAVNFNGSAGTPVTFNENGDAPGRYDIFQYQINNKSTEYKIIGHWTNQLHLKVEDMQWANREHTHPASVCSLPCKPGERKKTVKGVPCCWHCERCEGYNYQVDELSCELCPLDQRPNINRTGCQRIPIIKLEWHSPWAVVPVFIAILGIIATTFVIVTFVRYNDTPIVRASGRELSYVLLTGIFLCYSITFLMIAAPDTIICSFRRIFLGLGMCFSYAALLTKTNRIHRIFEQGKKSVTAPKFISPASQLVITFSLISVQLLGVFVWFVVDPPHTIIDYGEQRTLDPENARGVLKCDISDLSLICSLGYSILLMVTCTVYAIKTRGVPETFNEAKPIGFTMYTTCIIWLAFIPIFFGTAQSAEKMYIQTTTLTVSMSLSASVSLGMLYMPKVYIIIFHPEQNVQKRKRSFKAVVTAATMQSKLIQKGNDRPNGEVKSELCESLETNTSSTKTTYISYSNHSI
Take `CC(C)N1C(=O)/C(=C/C=C/c2ccco2)C(=O)N(Cc2ccco2)C1=O`: the z-score is active: 6.08.

On to `O=C(c1ccccc1F)c1cn(CC(=O)N2CCCCC2)c2ccccc12`, for which the z-score was -0.152.

The molecule `OC(c1ccccc1)(c1ccccc1)c1ccncc1` had a z-score of -0.0666.

For `Cc1[nH]c2ccccc2c1C1=CCNCC1`, the z-score was found to be 0.222.

For `Nc1cc(N2CCNCC2)ccc1[N+](=O)[O-]`, the z-score is -0.0892.

`CC(=O)c1cccc(NC2=NCC(C)S2)c1` (stereo not given) registered a z-score of -0.0888.

In turn, `CN1CC(C(=O)c2ccccc2)C(C(=O)c2ccccc2)C1` (stereo not given) came in with a z-score of 0.0253.

`O=c1c2ccccc2nc(CSc2ncnc3nc[nH]c23)n1-c1ccccc1Cl` displayed a z-score of -0.292.

As to `Cc1ccccc1N1C(=O)NC(=O)/C(=C\c2ccc3c(c2)CCCN3Cc2ccccc2)C1=O`, the z-score is -0.379.

For the molecule `O=C(c1cc(Br)ccc1Cl)N1CCC2(CC1)OCCO2`, the z-score came to 0.206.

For the molecule `CCCCSC1=NN1c1nc(N)nc(C)c1CC`, the z-score was -0.166.

Consider `Cc1cc(OCCCC(=O)NCc2cccs2)ccc1Cl`, for which the z-score was -0.105.

Regarding `O=[N+]([O-])c1ccc(C2C3C(c4ccccc4)=NC4(CCCCC4)N32)cc1` (stereo not given), the z-score is -0.181.

`COc1cc(/C=C2\C(=O)NC(=O)N(c3ccccc3)C2=O)cc(OC)c1O` displayed a z-score of -0.0827.

In the case of `COc1ccc(C2SCC(=O)Nc3c2c(C)nn3-c2ccccc2)cc1` (stereo not given), the z-score is -0.461.

`Cc1cccc(N2C(=O)NC(=O)/C(=C\c3cnc(-c4ccccc4)nc3)C2=O)c1`: the z-score is -0.271.

Consider `O=C(Nc1ccc(Cl)cc1C(=O)c1ccccc1)c1ccc(Br)o1`, for which the z-score was -0.138.

`CSc1nnc([C@@H](N)Cc2ccccc2)o1` displayed a z-score of 0.641.

On to `CCCN1CCC2(CC1)NC(CO)(CO)CO2`, for which the z-score is -0.585.

Consider `O=C1/C(=C\c2cc3c(cc2Br)OCO3)N2CCC1CC2`, for which the z-score is -0.259.

With `CCCCn1c(C)c(C(=O)O)c2cc(OC)ccc21`, the z-score was -0.364.

`Cc1ccc2cccc(OC(=O)N3CCCC3)c2n1` came in with a z-score of -0.0301.

Turning to `c1ccc2cc(CC3=NCCN3)ccc2c1`, the z-score was found to be 0.294.

In turn, `CCOC(=O)N(C)c1ccc(C(O)(C(=O)OCC)C(F)(F)F)cc1` (stereo not given) registered a z-score of -0.0433.

As for `CCOC(=O)CCN=Cc1c(O)n(-c2ccc(Br)cc2)c(=O)[nH]c1=O`, the z-score was 0.768.

For `N[C@@H](Cc1c[nH]c2ccccc12)c1nnc(SCc2ccc(Cl)cc2)o1`, the z-score came out at 0.554.

`O=C(CN1CC=C(c2ccccc2)CC1)Nc1cc(Cl)ccc1Cl`: the z-score is -0.572.

`CC/C(=N\N1CCCCCC1)c1c(O)n(-c2ccc(C)cc2)c(=O)[nH]c1=O`: the z-score was -0.318.

As for `CCN(CC)C(=O)c1ccc(NC(=O)c2cccc(F)c2)cc1`, the z-score was -0.198.

For the molecule `O=c1[nH]c(=O)n(-c2ccc(Cl)cc2)c(O)c1C=Nc1ccc(S(=O)(=O)Nc2nccs2)cc1`, the z-score was -0.22.

`Nc1c2c(nc3sc4c(c13)CCCC4)CCCCC2`: the z-score is -0.108.

Molecule `O=C(O)C(O)(c1ccccc1)C1CCCC1` (stereo not given) showed a z-score of -0.182.

For the molecule `Cc1c(N=Cc2c(O)n(CCc3ccccc3)c(=O)[nH]c2=O)c(=O)n(-c2ccccc2)n1C`, the z-score was -0.672.

For the molecule `CN1CCc2c(c(N3CCCCC3)nc3n[nH]c(N)c23)C1`, the z-score is 0.0981.

The molecule `Cc1cccc(N2C(=O)NC(=O)/C(=C\c3ccc4c(c3)CCCN4Cc3ccccc3)C2=O)c1` came in with a z-score of -0.759.

The molecule `c1ccc2c(CNC3CCCCCC3)c[nH]c2c1` showed a z-score of -0.0434.

With `COC(=O)C1CN(C#N)N(c2ccc(Cl)cc2)C12c1ccccc1-c1ccccc12` (stereo not given), the z-score was 0.06.

Molecule `C=CCn1c(O)c(C(C)=NCCN2CCCCC2)c(=O)[nH]c1=O` displayed a z-score of 0.617.

`CCOC(=O)C1SC2(C(F)(F)C(F)F)CC1(O)c1c(c(OC)c3occc3c1OC)O2` (stereo not given) returned a z-score of -1.12.

Molecule `Cc1ccc(/C=C2\C(=O)NC(=O)N(CCc3ccc(F)cc3)C2=O)o1` had a z-score of -0.149.

The molecule `COc1ccc(CCNC(=O)c2c(N)n(CCN3CCOCC3)c3nc4ccccc4nc23)cc1OC` displayed a z-score of -0.257.

`O=C1N(CN2CCOCC2)c2ccccc2C1(O)c1c[nH]c2ccccc12` (stereo not given) showed a z-score of 0.285.

Take `CCN(c1ccc(C(O)(C(=O)OC)C(F)(F)F)cc1)S(=O)(=O)c1ccc(C)cc1` (stereo not given): the z-score came out at 1.21.

Take `Fc1ccc(C(OCCN2CCCC2)c2ccc(F)cc2)cc1`: the z-score is -0.27.

As for `CC1(C)C2CC=C(CN3CCOCC3)C1C2` (stereo not given), the z-score stood at 0.372.

Molecule `Cc1cc(OC(=O)c2cccs2)c2c3c(c(=O)oc2c1)CCCC3` displayed a z-score of -0.458.

In turn, `CCOC(=O)C(C)(CC)NC(=O)CSP(=S)(OCC)OCC` (stereo not given) showed a z-score of -0.0861.

`COc1ccc(C2SCC(=O)Nc3c2c(C)nn3C2CCOC(C)(C)C2)cc1OC` (stereo not given) registered a z-score of -0.264.

`Cc1nonc1OCCNCCNc1ccc([N+](=O)[O-])c2cccnc12` came in with a z-score of -0.604.

Regarding `Cc1ccc(S(=O)(=O)NP(=O)(Oc2ccccc2)Oc2ccccc2)cc1`, the z-score is -0.367.

Molecule `CCOC(=O)c1c(C)[nH]c(C(=O)C(Cc2ccccc2)N(C)C)c1C` (stereo not given) came in with a z-score of 0.837.

In turn, `COc1ccc(CCC(=O)N2CCC3(CC2)OCCO3)cc1` displayed a z-score of -0.288.

In turn, `CCN(CC)c1ccc(C=C2C(=O)N(C)C(=S)N(C)C2=O)o1` yielded a z-score of -0.225.

For the molecule `CCN1C(=O)NC(=O)/C(=C/c2cc(C)n(-c3sc(C)c(C)c3C#N)c2C)C1=O`, the z-score was -0.623.

With `CCCCNC(=O)Nc1ccc(C(O)(C(=O)OC)C(F)(F)F)cc1` (stereo not given), the z-score was -2.26.

For `CCOC(=O)C1CCN(C=C2C(=O)N(C)C(=S)N(C)C2=O)CC1`, the z-score is -0.441.

Take `O=C(CN1CCCCC1)c1ccccc1Cl`: the z-score came out at 0.466.

`CCOC(=O)c1c(N)n(Cc2ccccc2)c2nc3ccccc3nc12`: the z-score was -0.161.

`CCC(C)N1C(=O)/C(=C\c2ccc(N3CCCCCC3)cc2)C(=O)NC1=S` (stereo not given): the z-score is -0.384.

`CCOC(=O)C(O)(c1ccc(NC(=O)NC2CCCCC2)cc1)C(F)(F)F` (stereo not given): the z-score is 0.0169.

In turn, `CCOC(=O)C1=C(N)OC2=C(C(=O)CC(C)(C)C2)C12C(=O)Nc1ccccc12` (stereo not given) yielded a z-score of 0.721.

In turn, `Cc1c(C=O)c2ccccc2n1Cc1ccc([N+](=O)[O-])cc1` returned a z-score of -0.755.

With `Cc1ccc(CN2C(=O)CN=C(c3ccccc3)c3ccccc32)cc1`, the z-score is 0.176.

On to `CCc1nnc(NC(=O)CCc2nc(C3=CCN(C)CC3)no2)s1`, for which the z-score came to 0.528.

Molecule `Cc1ccc(C)c(NC2=NCCCS2)c1` displayed a z-score of 0.861.

On to `O=P(C(c1c[nH]c2ccccc12)N1CCOCC1)(N1CCOCC1)N1CCOCC1` (stereo not given), for which the z-score was -0.0965.

`CN1C2CCC1CC(OC(=O)c1cc(Cl)cc(Cl)c1)C2` (stereo not given) yielded a z-score of 1.33.

In turn, `Cc1ccc2c(c1)N(CCC(=O)N1CCC3(CC1)OCCO3)C(=O)CO2` gave a z-score of 0.152.

`CCC(=NCCCN1CCOCC1)c1c(O)n(Cc2ccccc2)c(=O)[nH]c1=O` had a z-score of -0.0284.

`Cc1ccc(O)c(C(=O)c2cc(C(=O)NCc3ccccc3)c(=O)n(Cc3ccccc3)c2)c1` yielded a z-score of -0.479.

In turn, `COC(=O)[C@@H]1[C@@H](C(=O)OC)C2(c3ccccc3-c3ccccc32)N(c2ccc(Cl)cc2)N1C#N` came in with a z-score of 0.16.

`Cc1nnc2n1-c1ccc(Br)cc1C(c1ccccc1Cl)=NC2` came in with a z-score of 0.0708.

`CC(=NCc1ccc2c(c1)OCO2)c1c(O)n(C)c(=O)n(C)c1=O` gave a z-score of 0.356.

The molecule `COc1ccccc1OCCCn1cc(C(=O)c2ccco2)c2ccccc21` came in with a z-score of -1.11.

In turn, `CN1CCN(c2c(N)c(=O)oc3ccccc23)CC1` displayed a z-score of 0.0987.

Turning to `O=C1NC(=S)NC(=O)C12C(c1ccc(F)cc1)NC(=S)NC2c1ccc(F)cc1` (stereo not given), the z-score was 0.361.

Take `CCN1CCN(S(=O)(=O)c2ccc(Cl)nc2)CC1`: the z-score was -0.242.

`COc1ccccc1-n1c(-c2ccoc2)nc2ccccc2c1=O` came in with a z-score of -0.202.

`CC1(C)CN2C(c3ccc(Cl)cc3)N2C1` (stereo not given) displayed a z-score of 0.161.

The molecule `CSc1nnc(C2CCNCC2)n1C` showed a z-score of -1.17.

`CCN1C(=O)/C(=C/c2ccc3c(c2)CCN3CCCCl)C(=O)NC1=S` showed a z-score of -0.22.

Regarding `CN1C(=O)N(C)C(=O)C2(Cc3cc([N+](=O)[O-])ccc3N(C)C2c2ccccc2)C1=O` (stereo not given), the z-score was determined as 0.143.

With `CCOC(=O)C(NC(C)=O)C(OC(C)=O)c1cccc(N(CCCl)CCCl)c1` (stereo not given), the z-score amounted to 0.00624.

`C=CCNC(=O)c1c(N)n(Cc2ccco2)c2nc3ccccc3nc12` registered a z-score of -0.402.

`CN1C(=O)/C(=C\N2CCc3ccccc32)C(=O)NC1=S` had a z-score of -0.284.

Take `CC(=O)N1CCN(c2ccc(N=Cc3c(O)n(-c4ccc(Cl)cc4)c(=O)[nH]c3=O)cc2)CC1`: the z-score is -0.203.

On to `CCN(CC)CCCN=C(C)c1c(O)n(C2CCCCC2)c(=O)[nH]c1=O`, for which the z-score was -0.296.

Regarding `CCc1nc2ccccc2c(=O)n1-c1cccc(OC)c1`, the z-score is -0.521.

`O=c1[nH]c(=O)n(-c2cccc3ccccc23)c(O)c1/C=N/N1CCCCC1c1cccnc1` (stereo not given) yielded a z-score of 0.183.

With `CN1CCN(c2ccc(N)cc2)CC1`, the z-score came to 0.349.

For `CC(=O)N1CN2CN(C(C)=O)CC(C(=O)c3ccccc3)(C2)C1`, the z-score was 0.471.

Molecule `Cc1nn(-c2ccccc2)c(Cl)c1C1C(C#N)=C(N)Oc2c1c(=O)oc1ccccc21` (stereo not given) registered a z-score of -0.889.

As to `CC(=NCCO)c1c(O)n(C)c(=O)n(C)c1=O`, the z-score was determined as 0.391.

On to `CC(C)OP(=O)(OC(C)C)C(O)c1cccnc1` (stereo not given), for which the z-score was -0.136.

Turning to `CCOC(=O)N(CC)c1ccc(C(O)(C(=O)OC)C(F)(F)F)cc1` (stereo not given), the z-score was -0.282.

On to `O=C(COc1ccc(Br)cc1)N1CCN(Cc2c[nH]c3ccccc23)CC1`, for which the z-score came out at 0.613.

Molecule `COc1ccc(-c2nc3ccccc3c(=O)n2-c2cccnc2)cc1` had a z-score of -0.0323.

`COc1ccc(-n2c(O)c(C=Nc3c(C)n(C)n(-c4ccccc4)c3=O)c(=O)[nH]c2=O)cc1` registered a z-score of -0.0439.

The molecule `O=P(NS(=O)(=O)c1ccccc1)(Oc1ccccc1)Oc1ccccc1` gave a z-score of -0.453.

In the case of `CCOc1ccc(-n2c(-c3ccoc3)nc3ccccc3c2=O)cc1`, the z-score is -0.321.

The molecule `CC1CCCCN1CC(=O)c1ccc2cc[nH]c2c1` (stereo not given) returned a z-score of -0.179.

`O=c1[nH]c(=O)n(-c2cccc3ccccc23)c(O)c1C=NCc1ccc2c(c1)OCO2` displayed a z-score of 0.0424.

Turning to `CN1CSC(=S)N(C)C1`, the z-score was determined as 1.21.

The molecule `Cc1cc(/C=C2\C(=O)NC(=O)N(c3ccc(Cl)cc3)C2=O)c(C)n1-c1sc2c(c1C#N)CCCC2` displayed a z-score of 0.0605.

The molecule `Nc1ccc2c(c1)oc1ccccc12` displayed a z-score of 0.0995.

`N#CC1=C(N)Oc2c(c(=O)oc3ccccc23)C1c1ccccc1OC(=O)c1cccs1` (stereo not given) had a z-score of -0.275.

In turn, `OC(Cn1c2ccccc2c2ccccc21)C[n+]1ccccc1` (stereo not given) gave a z-score of -0.244.

The molecule `CC(C)CCC1(CN2CCCC2=O)C(=O)NC(=O)NC1=O` displayed a z-score of 0.137.

In the case of `COc1ccc(OP(=O)(Nc2ccccc2)Nc2ccccc2)cc1`, the z-score is -0.396.

Take `O=C(c1c[nH]cc1-c1ccccc1)c1cccc2ccccc12`: the z-score is 0.261.
